Laboratory results taken from PubChem BioAssay AID652106 (National Center for Advancing Translational Sciences (NCATS), 2013).
Screen size: about 370,000 compounds; about 500 (0.14%) were called active. The shares of active, inactive and inconclusive entries below differ from those in the screen. Calls come from the whole dose curve; as a rule, active = well fitted activation curve with a large enough effect; inconclusive = small, poorly fitted or top-dose-only effect; inactive = no such curve, though single readings can be large or run the other way. Potencies of inconclusive entries are left out as doubtful fits.

Test: qHTS of alpha-syn Inhibitors; note: nearly all actives have a fitted effect of over 65% in size
Settings: Yeast expressing alpha-synuclein, BacTiter-Glo, 24 h; Potency: growth rescue unless noted; series mostly up to 46.1 µM
Source text: The goal of this project is to identify new chemical probes capable of reversing the toxicity associated with the Parkinson disease-related protein, alpha-synuclein. Compounds will be selected on their ability to restore growth in yeast cells expressing toxic levels of alpha-synuclein. These compounds will provide a complementary approach to deciphering the tangled mechanisms of toxicity and protection that we have uncovered through genome-wide genetic screens and are beginning to uncover in a large-scale proteomics analysis with mass spectroscopy. To this end, a miniaturized assay was developed to be screened against the Molecular Libraries Small Molecule Repository (MLSMR) to discover alpha-synuclein inhibitors. Please note that in the set-up this yeast-based assay compounds that inhibit as alpha-syn, have a read-out as activators. NIH Chemical Genomics Center [NCGC] NIH Molecular Libraries Probe Centers Network [MLPCN] MLPCN Grant: NS060957 Assay Submitter (PI): Susan Lindquist, Whitehead Institute/MIT
Dispense 2.5 microL yeast galactose medium per 1536-well plate, pin compound, dispense 2.5 microL alpha-synuclein expressing yeast in galactose medium at OD600=0.02 (pregrown in raffinose medium to mid-log phase) per well, incubate for 24 hr at 30 deg C, and cell growth will be measured using 5 microL of Bactiter/Glo reagent to entire plate and read using Luminescence Protocol in ViewLux.
Potency is the fitted concentration of half-maximal effect; tags give direction and shape of the fitted curve.

Question: Which Potency does the source give for `O=C(c1[nH]c(C(F)(F)F)nc1-c1ccccc1)N1CCN(c2ncccc2C(F)(F)F)CC1` here?
Answer: inconclusive [activator, single point]

Question: With `Cc1occc1C(=O)Nc1ccccc1C(=O)O` as the compound, how does the Potency read?
Answer: inactive

Question: For `COc1ccc(CCNC(=O)CCCn2c(=S)[nH]c3ccsc3c2=O)cc1OC`, which Potency is on record?
Answer: inconclusive [activator, single point]

Question: For `Cc1cccc2cc(C#N)c(NCCCNS(=O)(=O)c3ccc(Cl)cc3)nc12`, which Potency is on record?
Answer: inconclusive [activator, single point]

Question: Which Potency does the source give for `CO[C@@H]1[C@@H](OC2OC(C)C(OC3CC(C)(O)C(OC(=O)CC(C)C)C(C)O3)C(N(C)C)C2O)[C@@H](CC=O)C[C@@H](C)C(=O)/C=C\C2O[C@H]2C[C@@H](C)OC(=O)C[C@H]1OC(C)=O` (stereo not given in full) here?
Answer: inactive

Question: Which Potency does the source give for `CCN(CC)c1ccc(NS(=O)(=O)c2ccc(-c3coc(C)n3)cc2)c(C)c1` here?
Answer: inconclusive [activator, single point]

Question: With `COc1ccc(S(=O)(=O)Nc2ccc(Nc3ccccc3)cc2)cc1` as the compound, how does the Potency read?
Answer: inconclusive [activator, single point]

Question: With `O=S(=O)(Nc1ccc(Cl)cc1)c1cccc2nsnc12` as the compound, how does the Potency read?
Answer: inconclusive [activator, single point]

Question: Which Potency does the source give for `CC[C@H]1OC(=O)[C@H](C)[C@@H](O[C@H]2C[C@@](C)(OC)[C@@H](O)[C@H](C)O2)[C@H](C)[C@@H](O[C@@H]2O[C@H](C)C[C@H](N(C)C)[C@H]2O)[C@](C)(O)C[C@@H](C)C(=NOCOCCOC)[C@H](C)[C@@H](O)[C@]1(C)O` here?
Answer: inconclusive [activator, partial curve]

Question: With `COc1cc2c(NC3CCN(C)CC3)nc(N3CCCN(C)CC3)nc2cc1OCCCN1CCCC1` as the compound, how does the Potency read?
Answer: inconclusive [activator, single point]

Question: Which Potency does the source give for `Cc1ccc(C)c(N2CCN(C(=O)c3ccc(N4CCCC4=O)cc3)CC2)c1` here?
Answer: inactive

Question: Which Potency does the source give for `Cn1cc([N+](=O)[O-])c(C(=O)Nc2ccc(C3CCCCC3)cc2)n1` here?
Answer: inactive

Question: Which Potency does the source give for `CCOC(=O)Cc1c[nH]c2ccccc12` here?
Answer: inconclusive [activator, single point]

Question: For `Cc1noc2ncnc(N3CCN(c4ccccc4F)CC3)c12`, which Potency is on record?
Answer: inconclusive [activator, single point]

Question: Which Potency does the source give for `CCC(=O)Nc1sc2c(c1C(=O)Nc1cccc(C)c1)CCCC2` here?
Answer: inconclusive [activator, single point]

Question: Which Potency does the source give for `CC/C=C1/N=C2C(=O)N(C)C(=O)N=C2N(C)N1` here?
Answer: inconclusive [activator, single point]

Question: For `CCOC(=O)C(Cc1ccccc1)NC(=O)CCc1nnc2ccc(N3CCCCC3)nn12` (stereo not given), which Potency is on record?
Answer: inconclusive [activator, single point]

Question: For `O=C1c2ccccc2C(c2nnnn2Cc2ccccc2)N1Cc1ccc2c(c1)OCO2` (stereo not given), which Potency is on record?
Answer: inconclusive [activator, single point]

Question: Which Potency does the source give for `COc1ccc(C(=O)NC(=S)NNC(=O)c2c(-c3ccccc3)noc2C)cc1OC` here?
Answer: inconclusive [activator, single point]

Question: Which Potency does the source give for `Cc1ccc(Nc2c(-c3ccccn3)nc3ccc(C)cn23)cc1` here?
Answer: inactive

Question: With `Cn1c(C(O)C(O)c2ccccc2)nc2ccccc21` (stereo not given) as the compound, how does the Potency read?
Answer: inconclusive [activator, single point]

Question: For `O=C(NCC(c1cccs1)N1CCc2ccccc21)c1ccccc1` (stereo not given), which Potency is on record?
Answer: inactive

Question: Which Potency does the source give for `CCn1c(CNc2cccc(Cl)c2)nnc1SCc1ccccc1` here?
Answer: inconclusive [activator, partial curve]

Question: For `Oc1ccc(N2CCN(c3ncnc4sc(-c5ccccc5)cc34)CC2)cc1`, which Potency is on record?
Answer: inconclusive [activator, single point]

Question: For `CC(c1nc2ccccc2[nH]1)n1c(=O)c(-c2ccco2)nc2ccccc21` (stereo not given), which Potency is on record?
Answer: inconclusive [activator, single point]

Question: With `COc1ccc(CNS(=O)(=O)c2cc(-c3cc(C)no3)ccc2C(C)C)cc1` as the compound, how does the Potency read?
Answer: inconclusive [activator, single point]

Question: For `O=C(c1cc(Br)c(Br)s1)N1CCc2ccccc2C1`, which Potency is on record?
Answer: inconclusive [activator, partial curve]

Question: With `Clc1cccc2sc(N3CCN(c4ccccc4)CC3)nc12` as the compound, how does the Potency read?
Answer: inactive

Question: With `CCN(CC)CCOc1ccc2c(c1)C(=NNC(=O)c1ccccn1)c1cc(OCCN(CC)CC)ccc1-2` as the compound, how does the Potency read?
Answer: inconclusive [activator, single point]

Question: For `Cc1ccccc1C(=O)Nc1c(-c2cccs2)c(=O)c2ccccc2n1C`, which Potency is on record?
Answer: inconclusive [activator, single point]

Question: For `Cc1ccc2nc(NC(=O)CSc3nccn3Cc3ccccc3)sc2c1`, which Potency is on record?
Answer: inconclusive [activator, single point]

Question: With `COC(=O)c1ccc(C(=O)OC)c(NC(=O)Cc2cccs2)c1` as the compound, how does the Potency read?
Answer: inconclusive [activator, single point]

Question: Which Potency does the source give for `CC1(C(=O)NS(=O)(=O)c2cccc(C#N)c2)CCN1C(=O)Cc1cc(F)ccc1F` (stereo not given) here?
Answer: inactive

Question: For `CCN(C(=O)C1CCN(c2nc(-c3ccc(OC)cc3)no2)CC1)c1ccc(OC)cc1`, which Potency is on record?
Answer: inconclusive [activator, single point]

Question: For `CNC(=O)c1c(NC(=O)c2ccc(S(=O)(=O)N3CCCC(C)C3)cc2)sc2c1CCC2` (stereo not given), which Potency is on record?
Answer: inconclusive [activator, single point]

Question: Which Potency does the source give for `COc1ccc(NC(=O)CSC2=C(C#N)C(c3ccco3)C(C(=O)Nc3nc4ccccc4s3)=C(C)N2)cc1` (stereo not given) here?
Answer: inactive

Question: For `COc1ccccc1CCn1c(N)cc(=O)[nH]c1=O`, which Potency is on record?
Answer: inconclusive [activator, single point]

Question: For `O=C(Nc1ccccc1)C1=C[C@@H](C2CCCCC2)C[C@@H](OCc2ccc(CO)cc2)O1`, which Potency is on record?
Answer: inconclusive [activator, single point]

Question: Which Potency does the source give for `O=C(NN=C1C2CC3CC(C2)CC1C3)c1ccncc1` here?
Answer: inconclusive [activator, single point]

Question: With `CC(=O)CSc1nc(-c2ccccc2)c(-c2ccccc2)o1` as the compound, how does the Potency read?
Answer: inactive

Question: For `O=C(Nc1ccccc1)c1nc[nH]c1C(=O)NCc1ccccc1`, which Potency is on record?
Answer: inactive

Question: With `O=c1c(-c2ccc([N+](=O)[O-])cc2)coc2c(O)c(O)ccc12` as the compound, how does the Potency read?
Answer: inconclusive [activator, single point]

Question: With `O=C(NC(=S)Nc1ccccc1O)c1cncc(Br)c1` as the compound, how does the Potency read?
Answer: active: 17.8 µM

Question: With `C(=N\N1CCN(Cc2cccc3ccccc23)CC1)/c1cccnc1` as the compound, how does the Potency read?
Answer: inconclusive [activator, single point]

Question: With `CC(CNC(=O)CC[C@H]1O[C@@H](n2cnc3c(NC(=O)c4ccccc4)ncnc32)[C@H](O)[C@@H]1O)c1ccccc1` (stereo not given in full) as the compound, how does the Potency read?
Answer: inconclusive [activator, single point]

Question: With `COC(=O)c1ccc(CNC(=O)c2nc(Cn3nc(C)c(Br)c3C)no2)cc1` as the compound, how does the Potency read?
Answer: inconclusive [activator, single point]

Question: Which Potency does the source give for `O=C(CSc1ncn[nH]1)N1N=C2/C(=C/c3ccccc3)CCCC2C1c1ccccc1` (stereo not given) here?
Answer: inconclusive [activator, single point]

Question: Which Potency does the source give for `Cc1ccc(C)c(-c2ccc(=O)n(Cc3ccc(F)cc3Cl)n2)c1` here?
Answer: inconclusive [activator, single point]

Question: Which Potency does the source give for `CC1(c2nnnn2-c2ccc3c(c2)OCCO3)CCC(=O)N1CCc1ccccc1F` (stereo not given) here?
Answer: inconclusive [activator, single point]

Question: For `Cc1cc(C)c2c(n1)nn1c(NCCCN3CCOCC3)cc(C)nc21`, which Potency is on record?
Answer: inconclusive [activator, single point]

Question: With `O=C(CSC1=NCCS1)N1CCc2ccccc21` as the compound, how does the Potency read?
Answer: inconclusive [activator, single point]

Question: For `COc1ccccc1Nc1nc2cc(C)ccc2cc1C#N`, which Potency is on record?
Answer: inactive

Question: Which Potency does the source give for `Cc1ccc(S(=O)(=O)c2nc(-c3ccco3)oc2NCC2CCCO2)cc1` (stereo not given) here?
Answer: inconclusive [activator, single point]

Question: For `Cc1csc2nc(-c3ccc(NS(=O)(=O)c4cccc(F)c4)cc3)cn12`, which Potency is on record?
Answer: inactive

Question: For `O=C(O)C1CSC2(c3ccc4c(c3)OCCO4)CCC(=O)N12` (stereo not given), which Potency is on record?
Answer: inactive

Question: For `OCCCN=c1cc(-c2ccccc2)oc2ccc(Cl)cc12`, which Potency is on record?
Answer: inactive

Question: For `COc1ccc(-c2cc3c(c4c2ccn4C)C2CCC3O2)cn1` (stereo not given), which Potency is on record?
Answer: inconclusive [activator, single point]

Question: With `COc1cccc(/C=C/C(=O)Nc2ccccc2N2CCOCC2)c1` as the compound, how does the Potency read?
Answer: inactive

Question: For `O=C1CC(Nc2ccccc2)C(=O)N1Cc1ccccc1` (stereo not given), which Potency is on record?
Answer: inconclusive [activator, single point]

Question: For `O=C(Nc1nc(-c2ccc(Cl)cc2)cs1)C1CCCO1` (stereo not given), which Potency is on record?
Answer: inactive

Question: With `COc1cccc(C2c3cc4c(cc3OC(N3CCCC3)C2C)OCO4)c1O` (stereo not given) as the compound, how does the Potency read?
Answer: inactive

Question: For `CCCCCCCCN1C(=O)[C@H](CC(=O)NCCCOCCCC)C[C@@]2(C(=O)OC)CCCCC=C12`, which Potency is on record?
Answer: inconclusive [activator, single point]

Question: Which Potency does the source give for `CC(C)(C)Cc1c(-c2ccco2)nc2ccc(Cl)cn12` here?
Answer: inconclusive [activator, partial curve]

Question: Which Potency does the source give for `COC(=O)[C@@]12CCCCN1[C@H](c1ccc(-c3ccc(C(C)=O)cc3)c(OC)c1)[C@@H]1C(=O)N(C)C(=O)[C@@H]12` here?
Answer: inconclusive [activator, single point]

Question: Which Potency does the source give for `O=C(Nc1cccc2ccccc12)c1csc([C@@H]2O[C@H](CO)[C@H](O)[C@H](O)[C@H]2O)n1` here?
Answer: inconclusive [activator, single point]
